Test results: PubChem BioAssay AID1476 (National Center for Advancing Translational Sciences (NCATS), 2009)
Several values for one entry are separate records, joined by “and”; a condition that tells them apart may be missing. Equal values may be shown once. In all, about 200,000 compounds went through this assay and about 4,500 (2.2%) were called active. The shares of active, inactive and inconclusive entries below differ from those in the screen. The call rests on the fitted dose curve; in most records, active means well fitted inhibition curve with a large enough effect; inconclusive means small, poorly fitted or top-dose-only effect, or effect the other way; inactive means flat fitted curve, though single readings scatter. A potency beside an inconclusive call is a rough fit, not a confirmed value.

Target: Cruzipain (Trypanosoma cruzi) (UniProt P25779)
UniProt P25779, sequence (P25779 whole entry, looked up): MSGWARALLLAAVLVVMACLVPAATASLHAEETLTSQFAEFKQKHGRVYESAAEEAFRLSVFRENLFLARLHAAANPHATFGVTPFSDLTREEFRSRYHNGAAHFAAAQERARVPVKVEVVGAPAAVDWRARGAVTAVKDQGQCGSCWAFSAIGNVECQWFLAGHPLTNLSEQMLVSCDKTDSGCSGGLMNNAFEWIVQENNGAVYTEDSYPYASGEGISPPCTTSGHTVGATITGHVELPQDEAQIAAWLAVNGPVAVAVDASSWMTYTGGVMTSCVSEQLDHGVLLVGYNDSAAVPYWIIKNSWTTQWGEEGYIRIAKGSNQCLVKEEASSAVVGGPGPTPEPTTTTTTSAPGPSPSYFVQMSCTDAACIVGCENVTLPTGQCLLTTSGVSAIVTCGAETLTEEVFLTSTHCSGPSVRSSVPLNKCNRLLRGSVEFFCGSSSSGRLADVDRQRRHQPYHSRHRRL
Test: qHTS Assay for Promiscuous and Specific Inhibitors of Cruzain (without detergent); further: nearly all actives have a fitted effect of over 40% in size;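 on max response, negative = inhibition: plate controls were enzyme without inhibitor for no effect and buffer without enzyme for full effect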
Conditions: purified cruzain, Z-FR-AMC fluorescence, no detergent
How it was run: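 Purified cruzain at 1.5 nM, pre-incubated 15 min with compound at room temperature in 100 mM sodium acetate pH 5.5, 5 mM DTT, 0.00005% Triton X-100. Reaction started with 2 uM Z-FR-AMC; AMC fluorescence increase over 60 s gives rate.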
Potency means the concentration at half of the fitted maximal effect; tags describe the fitted curve by direction and shape.

SMILES	Potency	max response, negative = inhibition
COc1cccc(-c2cc(C(F)(F)F)n3ncc(C(=O)NCC4CCCO4)c3n2)c1 (stereo not drawn)	inconclusive: 31.6 µM [activator, single point]	
CC(C)CCn1c(SCC(=O)N2CC(=O)Nc3ccccc32)nc2scc(-c3cccs3)c2c1=O	active: 12.6 µM	
COc1cccc(Nc2nc(-c3ccc4c(c3)OCCO4)cs2)c1	active: 25.1 µM	
COc1ccc(C(=O)Nc2ccccc2-c2nnn(CC(=O)NCc3ccco3)n2)cc1	inconclusive: 39.8 µM [inhibitor, single point]	
CCNc1nc(NCC)n2c(SC(C(=O)Nc3cc(C)ccc3OC)c3ccccc3)nnc2n1 (stereo not drawn)	inconclusive: 15.8 µM [activator, single point]	
CCCCOC(=O)/C(=C\c1ccc([N+](=O)[O-])o1)NC(=O)c1ccccc1	inconclusive: 31.6 µM [inhibitor, single point]	
COc1cccc(NC(=O)Cn2c(=O)n(CC(=O)NCCc3ccccc3)c(=O)c3sccc32)c1		inactive: 1.5%
CN(CC(=O)NCCc1ccc(Cl)cc1)S(=O)(=O)c1ccc2c(c1)c(=O)n(C)c(=O)n2C	inconclusive: 39.8 µM [activator, single point]	
O=C(Oc1cccc2ccccc12)c1cc(Cl)nc2ccccc12		inactive: -26.2%
O=C(N/N=C/c1c[nH]c2ccccc12)c1cc(-c2ccc(-c3ccccc3)cc2)n[nH]1	active: 7.94 µM	
O=C(CSc1nnnn1-c1ccccc1)Nc1ncc2c(n1)CC(c1ccco1)CC2=O (stereo not drawn)	inconclusive: 39.8 µM [inhibitor, single point]	
CCCn1cc2c(c1-c1cccc(C)c1)c(=O)n(C)c(=O)n2C		inactive: -4.14%
CC(=O)N1CCc2c(sc3c2c(=O)n(CCc2ccccc2)c(=O)n3Cc2cccc(C)c2)C1	inconclusive: 6.31 µM [activator, single point]	
S=c1[nH]cc(-c2ccccc2)n1-c1cccc(Cl)c1		inactive: -12.1%
CCN(CC)c1ccc(NC(=O)CN2C(=O)c3cccnc3Sc3ccccc32)c(C)c1		inactive: -6.82%
Cc1ccccc1CNC(=O)C(=O)NCC(c1cccs1)S(=O)(=O)c1ccc(Cl)cc1 (stereo not drawn)		inactive: 23.3%
Nc1c(C(=O)c2ccccc2)sc2snc(SCC(=O)c3ccccc3)c12	active: 12.6 µM	
CCc1ccc(NC(=O)Cn2c(=O)n(CC3CCCO3)c(=O)c3cc(OC)c(OC)cc32)cc1 (stereo not drawn)		inactive: 8.65%
COC(=O)c1ccccc1S(=O)(=O)N1Cc2cc([N+](=O)[O-])ccc2Oc2ccccc21	inconclusive: 39.8 µM [inhibitor, single point]	
O=C(COc1ccc(C(=S)N2CCOCC2)cc1)N1CCCC1	inconclusive: 31.6 µM [inhibitor, single point]	
COc1ccc(/C=C2\CCCC3C2=NN(C(=O)COC(=O)CNC(=O)c2ccccc2)C3c2ccc(OC)cc2)cc1 (stereo not drawn)	active: 15.8 µM	

SMILES	Potency	max response, negative = inhibition
Cc1ccn2cc(CCNC(=O)C3CCCCC3)nc2c1	inconclusive: 15.8 µM [inhibitor, partial curve]	
COc1ccc(N(CC(=O)Nc2ccc(S(=O)(=O)N3CCCCC3)cc2)S(C)(=O)=O)cc1OC	inconclusive: 39.8 µM [activator, single point]	
N[C@H](C(=O)O)c1cc(O)cc(O)c1		inactive: 4.2% and inactive: 2.88% and inactive: -7.21%
COC(=O)c1ccc(C(NC(=O)OCc2ccccc2)/C(=C/[C@@H](C)C(=O)NCc2ccc(OC)c(OC)c2)c2cccnc2)cc1 (stereo partly drawn)	inconclusive: 39.8 µM [activator, single point]	
CC(C)(C)NC(=O)C1CCN(C(=O)c2ccc(-c3ccccc3)cc2)CC1	inconclusive: 25.1 µM [activator, partial curve]	
O=C(Nc1nnc(-c2ccccc2)o1)c1cc(-c2cccs2)nc2ccccc12	inconclusive: 12.6 µM [inhibitor, partial curve]	
Cc1ccc(C(=O)N[C@H](C(=O)OCc2cc(=O)n3c(n2)sc2ccccc23)C(C)C)cc1	inconclusive: 15.8 µM [inhibitor, partial curve]	
C=CCN1C(=O)C(CC(=O)Nc2ccc(C)cc2)SC1=Nc1c(C)n(C)n(-c2ccccc2)c1=O (stereo not drawn)	inconclusive: 39.8 µM [activator, single point]	
Cc1cc(C)c(/C=C2\C(=O)Nc3ccccc32)[nH]1	inconclusive: 20 µM [inhibitor, partial curve, poor fit]	
CCc1cc2cccc(C)c2nc1SCC(=O)N1CCN(C(=O)c2ccco2)CC1	inconclusive: 31.6 µM [activator, single point]	
CC(=O)Nc1cn(C(C)=O)c(C)n1		inactive: -2.21%
COC(=O)[C@@]1(Cc2ccc(OC)cc2)[C@H]2c3cc(C(=O)N(C)C)n(Cc4ccc(OC)c(OC)c4)c3C[C@H]2CN1C(=O)c1ccccc1	inconclusive: 20 µM [activator, partial curve]	
COc1ccc2c(Sc3ccccc3)c(C(=O)NCc3cc(Br)ccc3OC)[nH]c2c1		inactive: 0.956%
COc1ccc(Br)cc1CNC(=O)Cn1ncn2nc(-c3cccs3)cc2c1=O		inactive: 8.71%
CC1CCCN(c2nc(-c3cccnc3)nc3scc(-c4ccccc4)c23)C1 (stereo not drawn)	inconclusive: 31.6 µM [inhibitor, single point]	
COc1ccc(-n2c(=O)c(-c3ccc(Cl)cc3)nc3cnc(N4CCNCC4)nc32)cc1		inactive: 4.65%
COc1ccccc1N1CCN(C(=O)c2ccc3c(c2)CCN3S(=O)(=O)c2ccccc2)CC1	inconclusive: 31.6 µM [activator, partial curve]	
CCOc1ccc(S(=O)(=O)N2CCN(c3ccccc3F)CC2)c2cccnc12	inconclusive: 39.8 µM [activator, single point]	
Cc1cccc(C(=O)Nc2ccc(C(=O)/C=C/c3cccnc3)cc2)c1	inconclusive: 31.6 µM [inhibitor, single point]	
Cc1ccc(-c2nnn(CC(=O)N3c4ccccc4CCc4ccccc43)n2)cc1	inconclusive: 25.1 µM [inhibitor, partial curve, poor fit]	
CCCC(=O)NCCc1c2n(c3ccc(OC)cc13)CCCc1ccccc1-2	inconclusive: 39.8 µM [activator, single point]	

SMILES	Potency	max response, negative = inhibition
Cc1oc2ccc(O)c(CN3CCCC(C)C3)c2c1C(=O)Nc1ccccc1 (stereo not drawn)		inactive: -9.16%
COc1ccc2c(c1)c(=O)c(C(=O)c1ccc(Cl)cc1)cn2CC(=O)Nc1ccc2c(c1)OCCO2		inactive: -2.33%
Clc1ccccc1-c1nnc2sc(C3COc4ccccc4O3)nn12 (stereo not drawn)	inconclusive: 31.6 µM [inhibitor, single point]	
COc1cccc2[nH]c(C(=O)NCc3ccc4c(c3)CCN4C(=O)c3ccc(F)cc3)cc12	inconclusive: 31.6 µM [inhibitor, single point]	
C/C=C/c1ccc(OCCOc2cccc3cccnc23)c(OC)c1	inconclusive: 20 µM [activator, single point]	
CCC(C)(C)n1nnnc1C(c1cccs1)N1CCN(c2nc3ccccc3s2)CC1 (stereo not drawn)	inconclusive: 25.1 µM [inhibitor, single point]	
COc1ccc(C2CC(c3ccccc3Cl)Nc3ncnn32)cc1OC (stereo not drawn)		inactive: 4.05%
CCn1c(SCC(N)=O)nc2c(c1=O)C1(CCCC1)Cc1ccccc1-2	inconclusive: 31.6 µM [activator, single point]	
CCCCC/C=C\C/C=C\C/C=C\C/C=C\CCCCOC(CO)CO	inconclusive: 25.1 µM [activator, single point]	
COc1ccccc1NC(=O)CSc1nc2sc(C)c(C)c2c(=O)n1Cc1ccco1	inconclusive: 25.1 µM [inhibitor, single point]	
CO[C@@H]1c2cc(F)ccc2/C(=C\CCOC(=O)C/C=C/c2ccccc2)[C@H]1C		inactive: 6.01%
COc1ccc(Cn2nc(C)n(N(C)c3ncc(C(F)(F)F)cc3Cl)c2=O)cc1	inconclusive: 39.8 µM [activator, single point]	
COc1ccc(CCNc2cc(C)nc3c(-c4ccccc4)cnn23)cc1OC	inconclusive: 39.8 µM [activator, single point]	
Cc1ccc2nc(NC(=O)C3CCN(S(=O)(=O)c4cc([N+](=O)[O-])ccc4Cl)CC3)sc2c1	active: 31.6 µM	
CC(=NCc1ccco1)c1c(C(F)(F)F)[nH]n(-c2nc3ccccc3s2)c1=O	inconclusive: 39.8 µM [activator, single point]	
CC(C)C[C@@H](CC(=O)N[C@@H](CCC(=O)O)CC(=O)O)NC(=O)[C@@H]1CCCC[C@H]1NC(=O)C[C@@H](NC(=O)C[C@H](Cc1ccccc1)NC(=O)[C@@H]1CCCC[C@H]1N)C(C)C	inconclusive: 25.1 µM [activator, partial curve]	
CCOC(=O)c1c(NC(=S)Nc2ccc(C)cc2)sc2c1CCC2	inconclusive: 39.8 µM [inhibitor, single point]	
c1ccc(CNc2oc(-c3ccccc3)nc2-c2cccc3ccccc23)cc1	active: 15.8 µM	
N#C/C(=C(\O)Cc1ccccc1)c1nc2ccccc2[nH]1	inconclusive: 25.1 µM [inhibitor, single point]	
CN(Cc1cccs1)C(=O)CSc1nnnn1C	inconclusive: 0.02 µM [inhibitor, full curve, poor fit]	
COc1cccc(NC(=O)C2CCN(c3nnc(-n4c(C)ccc4C)s3)CC2)c1		inactive: 2.36%
